Paper PMC7819943, “Rice protein-binding microarrays: a tool to detect cis-acting elements near promoter regions in rice”
Some of the results follow.

target: T1, OsWOX13 (Oryza sativa, UniProt Q5QMM3 1-267); test: protein-binding microarray (RPBM); PBS, 2% BSA, 51.3 ng/ul salmon testes DNA, 50 uM zinc acetate, 200 nM TF, 25 C, 1 h; high values mean tight binding; settings: protein: recombinant; tags: N-terminal polyhistidine and DsRed monomer fusion (pET32a); label: CyDye5-dUTP incorporated in the synthesized complementary strand; 3' TTTTT single-stranded linker to array surface; dsDNA, one strand shown
T1 sequence: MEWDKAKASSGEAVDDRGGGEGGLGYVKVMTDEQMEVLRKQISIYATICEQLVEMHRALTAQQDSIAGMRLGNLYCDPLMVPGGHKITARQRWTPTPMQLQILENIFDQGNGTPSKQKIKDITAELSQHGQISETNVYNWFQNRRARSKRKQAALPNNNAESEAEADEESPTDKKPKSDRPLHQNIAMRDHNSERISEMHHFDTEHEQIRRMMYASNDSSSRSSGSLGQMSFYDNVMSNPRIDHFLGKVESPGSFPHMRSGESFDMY
Procedure, shortened: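 The binding signal is fluorescence intensity per array feature (arbitrary units). Readings came from an Axon 4000B scanner after a washed, 2% BSA-blocked, double-stranded custom Agilent array had been incubated for 1 h at 25 °C with 200 nM protein and 50 µM zinc acetate. The protein was a Ni–NTA-purified transcription factor fused N-terminally to polyhistidine and DsRed, expressed in E. coli BL21-CodonPlus.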

| Sequence | binding signal |
| --- | --- |
| GCTATTGACAGCTTCAGGAGAACATTATCTGATGTGGTTACGGAGTCACCTAGTGCAG | 7760 fluorescence intensity (a.u.) |
| AGTCATGTGATAGATCACATCTCCAATATTTTAGTACCCGCGGAGTCACCTAGTGCAG | 4870 fluorescence intensity (a.u.) |
| GTAAATTAGCAAGCAGCAGCATCAGTAACAGCAGCCATGACGGAGTCACCTAGTGCAG | 7970 fluorescence intensity (a.u.) |
| GCTAATTTTGTTATACAAATAAGTGCCAAAAGAACATCCTCGGAGTCACCTAGTGCAG | 4230 fluorescence intensity (a.u.) |
| TGTTAATGTCACTTGCTAATCACTAGAATTTAAATGCGTGCGGAGTCACCTAGTGCAG | 8770 fluorescence intensity (a.u.) |
| GACTTCTGATTTGCGTGGCTTAGTGAACAGGGCACCTCCTCGGAGTCACCTAGTGCAG | 6320 fluorescence intensity (a.u.) |
| TGCTTATATTTGTAGCTAATTATTCTTTCTATGACAGACGCGGAGTCACCTAGTGCAG | 3990 fluorescence intensity (a.u.) |
| TGTATATACACCCATCAATCACTTGACCAAGGTAACATGCCGGAGTCACCTAGTGCAG | 11500 fluorescence intensity (a.u.) |
| TTCGGGGATGTGAATGGGAATGGATTGGATCTTGGGATTACGGAGTCACCTAGTGCAG | 3670 fluorescence intensity (a.u.) |
| TATTTAATTTTACGGTAAGTGTACGATAACAAGTTGAGTGCGGAGTCACCTAGTGCAG | 12100 fluorescence intensity (a.u.) |
| TTTAATTTCTTTATTTAAAATTTCATGCTATACAGTTTTCCGGAGTCACCTAGTGCAG | 6480 fluorescence intensity (a.u.) |
| TCTTGATGGCACAATTCCTGACTCTTTCGTCAATTTGAAACGGAGTCACCTAGTGCAG | 4720 fluorescence intensity (a.u.) |
| ATTCGGATTGGTATCAATTCATGATCCCCAAGATTAGTTACGGAGTCACCTAGTGCAG | 10800 fluorescence intensity (a.u.) |
| CTCGCTCTTCATCACTGCCAATTGACCCTAAATCTCATGTCGGAGTCACCTAGTGCAG | 3230 fluorescence intensity (a.u.) |
| CCTAACTGATGCACCCCAAATTCCATACCATATGTACCTTCGGAGTCACCTAGTGCAG | 19800 fluorescence intensity (a.u.) |
| TAAGCTAATAATGCTTAATTAATCATGTGGTAACCTCGCCCGGAGTCACCTAGTGCAG | 8100 fluorescence intensity (a.u.) |
| CCATAATCTTTCCTAATTACTATTATTAGTGTTAAGTATACGGAGTCACCTAGTGCAG | 8910 fluorescence intensity (a.u.) |
| TTATAATTACTTATAGTACCTCCAAAACTAATTTAGCAGCCGGAGTCACCTAGTGCAG | 14700 fluorescence intensity (a.u.) |
| AAATATATTGTAATTACACCGTAATTATGCTATAGTTATACGGAGTCACCTAGTGCAG | 17300 fluorescence intensity (a.u.) |
| TCTGTTGATGGATGTGGATGTTGTGCAGGTGACGCTGCAGCGGAGTCACCTAGTGCAG | 5150 fluorescence intensity (a.u.) |
| AATTGATGGAAAATTGTCCCTCGTTTCGCTCCGGCCTGCCCGGAGTCACCTAGTGCAG | 20200 fluorescence intensity (a.u.) |
| TTGCTAATACTTAATTAATCACGTGTTAATGTACCGCCCCCGGAGTCACCTAGTGCAG | 20500 fluorescence intensity (a.u.) |
| GTCTCAATTCAAAACTAATTTATGAACATTTCAATTGAATCGGAGTCACCTAGTGCAG | 6370 fluorescence intensity (a.u.) |
| TATAAATCAAATTAGGACAATGTTATTCATCACAGTAACACGGAGTCACCTAGTGCAG | 6120 fluorescence intensity (a.u.) |
| ACAATTGAAGATAAATGACAAACCAATAAACCATTTGTTTCGGAGTCACCTAGTGCAG | 5080 fluorescence intensity (a.u.) |
| TTAATTGATCACATATTAATGGGCAACGCTGTTTTCCATGCGGAGTCACCTAGTGCAG | 63600 fluorescence intensity (a.u.) |
| TAACAACACATTAATTAGTACATCTTGCATAAGCATAAATCGGAGTCACCTAGTGCAG | 5740 fluorescence intensity (a.u.) |

| Sequence | binding signal |
| --- | --- |
| AAGCTTAACACAATTAATTTCCTCGCAAAACATCTCACGCCGGAGTCACCTAGTGCAG | 8760 fluorescence intensity (a.u.) |
| ATCAAATAATTACCTTTATCTGCAATATGCTAGGTCTTAGCGGAGTCACCTAGTGCAG | 10700 fluorescence intensity (a.u.) |
| TCCATGATTATGGCTTCTAGATGGATACTATACGTATGTACGGAGTCACCTAGTGCAG | 23700 fluorescence intensity (a.u.) |
| TTGTGATTAAGTTAAGTAGAAAGGAAAATAGGACCGTGGACGGAGTCACCTAGTGCAG | 24300 fluorescence intensity (a.u.) |
| AAGGTAAATAATTGGCGGTAGAAACGTTCAAGCCCACCACCGGAGTCACCTAGTGCAG | 9040 fluorescence intensity (a.u.) |
| TGGCAATGATTTATACTTCAATCATAATTGTTTGCTTAGGCGGAGTCACCTAGTGCAG | 24000 fluorescence intensity (a.u.) |
| CACCAGATTGTTCATCACCTTACATGTGGTTGTTGGAAATCGGAGTCACCTAGTGCAG | 4540 fluorescence intensity (a.u.) |
| TGTCAATCAAATATACCTATACAACAAAATACAAGCCACCCGGAGTCACCTAGTGCAG | 16400 fluorescence intensity (a.u.) |
| AGACGGAATTACCACCCAAAGATTTGTCAATCTCTCAAGCCGGAGTCACCTAGTGCAG | 4310 fluorescence intensity (a.u.) |
| ATCATAATTAAATATATTTTCATAATAAATTTGTCTTTAGCGGAGTCACCTAGTGCAG | 31000 fluorescence intensity (a.u.) |
| ACCGGTAAATTAATTAGCAAACACAGTAGCATGATGAGATCGGAGTCACCTAGTGCAG | 27000 fluorescence intensity (a.u.) |
| CGTTTTCATTAATGACCTAATCTCCAATTAAACTCCATATCGGAGTCACCTAGTGCAG | 14400 fluorescence intensity (a.u.) |
| CTTTATAAATTGTGTCATCTACTCATGTGTGGTAGGTCAACGGAGTCACCTAGTGCAG | 5450 fluorescence intensity (a.u.) |
| TTATAACTGATTTATACTATCCTTTTGAGTTTTGGCAGATCGGAGTCACCTAGTGCAG | 26300 fluorescence intensity (a.u.) |
| AATAATGAGATTTTAATTAGGCAGTGGTAACACATAGTAACGGAGTCACCTAGTGCAG | 12600 fluorescence intensity (a.u.) |
| GATGATTTTGGCTTTGGGAAAGATGGTTTGTGCCATGCGACGGAGTCACCTAGTGCAG | 4170 fluorescence intensity (a.u.) |
| TAATTTCATCTTGATGGACACGTGGTTTGTCGATGTACACCGGAGTCACCTAGTGCAG | 3720 fluorescence intensity (a.u.) |
| GGTGTGATAGAATGGGATTAATCCGAAGCGCCGCCAATGTCGGAGTCACCTAGTGCAG | 21000 fluorescence intensity (a.u.) |
| ACATCATTAATCAATCTGTAATTAATCCACCATAATTTAACGGAGTCACCTAGTGCAG | 10800 fluorescence intensity (a.u.) |
| ACGGGGTTGCGGTAATTTTAATTGGGCCGAAATGTGATTCCGGAGTCACCTAGTGCAG | 4130 fluorescence intensity (a.u.) |
| CTAGCGAACAAATTGATCCCTTGCAACTGTCCCATCGTTACGGAGTCACCTAGTGCAG | 5650 fluorescence intensity (a.u.) |
| GTCTGATTTATGTTCATTCCTATAGGTTTATTCTGGTGACCGGAGTCACCTAGTGCAG | 36500 fluorescence intensity (a.u.) |
| TAATAATATAATAGATAATAGATAGATGATTTACCAAGGCCGGAGTCACCTAGTGCAG | 23100 fluorescence intensity (a.u.) |
| TAAATTAAATTGCTACGTAAGTGCCACGTCATATTAAGATCGGAGTCACCTAGTGCAG | 16000 fluorescence intensity (a.u.) |
| CATGATTTGACAAAATTCAGTTGAATGCAAAATTCATACCCGGAGTCACCTAGTGCAG | 36300 fluorescence intensity (a.u.) |
| AGTGGGTCGCTGATTAATCATTCGTCGTTGTGCAGAAGCACGGAGTCACCTAGTGCAG | 3990 fluorescence intensity (a.u.) |
| GTCCCAATTTAAATGCAACCATGATTTTCTGTGTCCAACTCGGAGTCACCTAGTGCAG | 11800 fluorescence intensity (a.u.) |
